Some of the results follow. The list includes weakly bound sequences.

This test addresses T1, MBP-FoxP3dN (UniProt Q99JB6).
T1 sequence: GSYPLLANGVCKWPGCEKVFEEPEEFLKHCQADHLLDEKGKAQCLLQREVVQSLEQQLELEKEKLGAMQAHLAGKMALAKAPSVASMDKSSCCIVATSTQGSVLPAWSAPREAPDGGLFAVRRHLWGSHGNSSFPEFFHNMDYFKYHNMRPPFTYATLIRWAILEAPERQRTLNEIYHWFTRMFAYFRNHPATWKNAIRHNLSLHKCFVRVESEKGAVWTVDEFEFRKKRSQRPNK
Description: PD-seq (MBP pull-down with sequencing). As to conditions: 20 mM Tris-HCl pH 7.5, 100 mM NaCl, 1.5 mM MgCl2, 0.4 uM protein, 0.1 uM dsDNA library, 30 min, room temperature, amylose pull-down; high values mean tight binding; double strand, one strand shown.
For “GATGATTGTTCTCCCAGCTGATGAATTAGAACTGTCGAGTAAACAAATTTTCCTAATCTTTCTGTTCAAGCGCCATCTAC”, the binding signal (RPM ratio (pull-down/input)) was determined as 0.308.

With “GATGATTGTTCTCCCAGCTGATGAATTTGGTCTATCGAGTAAACAAATTTTCCTAATCTTTCTGTTCAAGCGCCATCTAC”, the binding signal (RPM ratio (pull-down/input)) is 0.749. With “GATGATTGTTCTCCCAGCTGATGAATTCGAGAAGTCGAGTAAACAAATTTTCCTAATCTTTCTGTTCAAGCGCCATCTAC” the figure was 0.16. Turning to “GATGATTGTTCTCCCAGCTGATGAATTGCAGTAGTCGAGTAAACAAATTTTCCTAATCTTTCTGTTCAAGCGCCATCTAC”, the binding signal (RPM ratio (pull-down/input)) was 0.742. The same measure for “GATGATTGTTCTCCCAGCTGATGAATTCATAGATTCGAGTAAACAAATTTTCCTAATCTTTCTGTTCAAGCGCCATCTAC”: 0.351. With “GATGATTGTTCTCCCAGCTGATGAATTCCGAGCTTCGAGTAAACAAATTTTCCTAATCTTTCTGTTCAAGCGCCATCTAC” the figure was 0.301; with “GATGATTGTTCTCCCAGCTGATGAATTCCGCGGATCGAGTAAACAAATTTTCCTAATCTTTCTGTTCAAGCGCCATCTAC”, 0.261; with “GATGATTGTTCTCCCAGCTGATGAATTAATTAATTCGAGTAAACAAATTTTCCTAATCTTTCTGTTCAAGCGCCATCTAC”, 0.374. With “GATGATTGTTCTCCCAGCTGATGAATTGCACCTCTCGAGTAAACAAATTTTCCTAATCTTTCTGTTCAAGCGCCATCTAC” the figure was 1.2; with “GATGATTGTTCTCCCAGCTGATGAATTACACCTATCGAGTAAACAAATTTTCCTAATCTTTCTGTTCAAGCGCCATCTAC”, 0.645. With “GATGATTGTTCTCCCAGCTGATGAATTTTTGAAGTCGAGTAAACAAATTTTCCTAATCTTTCTGTTCAAGCGCCATCTAC”, the binding signal (RPM ratio (pull-down/input)) turned out to be 0.206. For “GATGATTGTTCTCCCAGCTGATGAATTACTAATCTCGAGTAAACAAATTTTCCTAATCTTTCTGTTCAAGCGCCATCTAC”, the binding signal (RPM ratio (pull-down/input)) amounted to 0.468. With “GATGATTGTTCTCCCAGCTGATGAATTATACAGCTCGAGTAAACAAATTTTCCTAATCTTTCTGTTCAAGCGCCATCTAC” the figure was 0.504; with “GATGATTGTTCTCCCAGCTGATGAATTTTAAGATTCGAGTAAACAAATTTTCCTAATCTTTCTGTTCAAGCGCCATCTAC”, 0.275; with “GATGATTGTTCTCCCAGCTGATGAATTAAGGTGCTCGAGTAAACAAATTTTCCTAATCTTTCTGTTCAAGCGCCATCTAC”, 0.449. On to “GATGATTGTTCTCCCAGCTGATGAATTCGTGTTATCGAGTAAACAAATTTTCCTAATCTTTCTGTTCAAGCGCCATCTAC”, for which the binding signal (RPM ratio (pull-down/input)) was determined as 1.72. “GATGATTGTTCTCCCAGCTGATGAATTGCCTGGTTCGAGTAAACAAATTTTCCTAATCTTTCTGTTCAAGCGCCATCTAC”: the binding signal (RPM ratio (pull-down/input)) was found to be 0.696. The same measure for “GATGATTGTTCTCCCAGCTGATGAATTGAATAACTCGAGTAAACAAATTTTCCTAATCTTTCTGTTCAAGCGCCATCTAC”: 0.343; for “GATGATTGTTCTCCCAGCTGATGAATTTGAGTCATCGAGTAAACAAATTTTCCTAATCTTTCTGTTCAAGCGCCATCTAC”: 0.776. The same measure for “GATGATTGTTCTCCCAGCTGATGAATTCATAGTCTCGAGTAAACAAATTTTCCTAATCTTTCTGTTCAAGCGCCATCTAC”: 0.646. The same measure for “GATGATTGTTCTCCCAGCTGATGAATTCACCCGCTCGAGTAAACAAATTTTCCTAATCTTTCTGTTCAAGCGCCATCTAC”: 0.263; for “GATGATTGTTCTCCCAGCTGATGAATTGAGAAGTTCGAGTAAACAAATTTTCCTAATCTTTCTGTTCAAGCGCCATCTAC”: 0.219. For “GATGATTGTTCTCCCAGCTGATGAATTTCTATGTTCGAGTAAACAAATTTTCCTAATCTTTCTGTTCAAGCGCCATCTAC”, the binding signal (RPM ratio (pull-down/input)) came out at 0.457.

In the case of “GATGATTGTTCTCCCAGCTGATGAATTATTGTTGTCGAGTAAACAAATTTTCCTAATCTTTCTGTTCAAGCGCCATCTAC”, the binding signal (RPM ratio (pull-down/input)) turned out to be 4.3. The same measure for “GATGATTGTTCTCCCAGCTGATGAATTTCAAACTTCGAGTAAACAAATTTTCCTAATCTTTCTGTTCAAGCGCCATCTAC”: 0.276; for “GATGATTGTTCTCCCAGCTGATGAATTAAGAACCTCGAGTAAACAAATTTTCCTAATCTTTCTGTTCAAGCGCCATCTAC”: 0.244; for “GATGATTGTTCTCCCAGCTGATGAATTGCCGGTCTCGAGTAAACAAATTTTCCTAATCTTTCTGTTCAAGCGCCATCTAC”: 0.57. With “GATGATTGTTCTCCCAGCTGATGAATTAGGTGTCTCGAGTAAACAAATTTTCCTAATCTTTCTGTTCAAGCGCCATCTAC” the figure was 1.65; with “GATGATTGTTCTCCCAGCTGATGAATTCTGTTATTCGAGTAAACAAATTTTCCTAATCTTTCTGTTCAAGCGCCATCTAC”, 6.72.

“GATGATTGTTCTCCCAGCTGATGAATTCTGAACCTCGAGTAAACAAATTTTCCTAATCTTTCTGTTCAAGCGCCATCTAC”: the binding signal (RPM ratio (pull-down/input)) was 0.328. With “GATGATTGTTCTCCCAGCTGATGAATTCGACCCGTCGAGTAAACAAATTTTCCTAATCTTTCTGTTCAAGCGCCATCTAC” the figure was 0.264; with “GATGATTGTTCTCCCAGCTGATGAATTATTACTCTCGAGTAAACAAATTTTCCTAATCTTTCTGTTCAAGCGCCATCTAC”, 0.411; with “GATGATTGTTCTCCCAGCTGATGAATTAGACTCCTCGAGTAAACAAATTTTCCTAATCTTTCTGTTCAAGCGCCATCTAC”, 0.422.

Consider “GATGATTGTTCTCCCAGCTGATGAATTCCTAGCATCGAGTAAACAAATTTTCCTAATCTTTCTGTTCAAGCGCCATCTAC”, for which the binding signal (RPM ratio (pull-down/input)) is 0.659. The same measure for “GATGATTGTTCTCCCAGCTGATGAATTTTTTAATTCGAGTAAACAAATTTTCCTAATCTTTCTGTTCAAGCGCCATCTAC”: 0.279; for “GATGATTGTTCTCCCAGCTGATGAATTACGCCATTCGAGTAAACAAATTTTCCTAATCTTTCTGTTCAAGCGCCATCTAC”: 5.04; for “GATGATTGTTCTCCCAGCTGATGAATTTTCTGCCTCGAGTAAACAAATTTTCCTAATCTTTCTGTTCAAGCGCCATCTAC”: 0.359. With “GATGATTGTTCTCCCAGCTGATGAATTGGTCTGTTCGAGTAAACAAATTTTCCTAATCTTTCTGTTCAAGCGCCATCTAC” the figure was 0.463; with “GATGATTGTTCTCCCAGCTGATGAATTATGTTGCTCGAGTAAACAAATTTTCCTAATCTTTCTGTTCAAGCGCCATCTAC”, 4.42. With “GATGATTGTTCTCCCAGCTGATGAATTAACACGGTCGAGTAAACAAATTTTCCTAATCTTTCTGTTCAAGCGCCATCTAC” the figure was 0.272. Consider “GATGATTGTTCTCCCAGCTGATGAATTGACATCGTCGAGTAAACAAATTTTCCTAATCTTTCTGTTCAAGCGCCATCTAC”, for which the binding signal (RPM ratio (pull-down/input)) is 0.548.

On to “GATGATTGTTCTCCCAGCTGATGAATTAGTTTTTTCGAGTAAACAAATTTTCCTAATCTTTCTGTTCAAGCGCCATCTAC”, for which the binding signal (RPM ratio (pull-down/input)) was 3.9. As for “GATGATTGTTCTCCCAGCTGATGAATTGTAGTACTCGAGTAAACAAATTTTCCTAATCTTTCTGTTCAAGCGCCATCTAC”, the binding signal (RPM ratio (pull-down/input)) was found to be 1.16. With “GATGATTGTTCTCCCAGCTGATGAATTCAGAACCTCGAGTAAACAAATTTTCCTAATCTTTCTGTTCAAGCGCCATCTAC” the figure was 0.244; with “GATGATTGTTCTCCCAGCTGATGAATTTGGGTGGTCGAGTAAACAAATTTTCCTAATCTTTCTGTTCAAGCGCCATCTAC”, 0.682. With “GATGATTGTTCTCCCAGCTGATGAATTATCAGCCTCGAGTAAACAAATTTTCCTAATCTTTCTGTTCAAGCGCCATCTAC” the figure was 0.468; with “GATGATTGTTCTCCCAGCTGATGAATTTGAGTTCTCGAGTAAACAAATTTTCCTAATCTTTCTGTTCAAGCGCCATCTAC”, 1.12; with “GATGATTGTTCTCCCAGCTGATGAATTAACGCTTTCGAGTAAACAAATTTTCCTAATCTTTCTGTTCAAGCGCCATCTAC”, 1.13. The same measure for “GATGATTGTTCTCCCAGCTGATGAATTATGACTATCGAGTAAACAAATTTTCCTAATCTTTCTGTTCAAGCGCCATCTAC”: 0.751; for “GATGATTGTTCTCCCAGCTGATGAATTTGGCGCCTCGAGTAAACAAATTTTCCTAATCTTTCTGTTCAAGCGCCATCTAC”: 1.41. As to “GATGATTGTTCTCCCAGCTGATGAATTGCTAGACTCGAGTAAACAAATTTTCCTAATCTTTCTGTTCAAGCGCCATCTAC”, the binding signal (RPM ratio (pull-down/input)) was 0.468.

In the case of “GATGATTGTTCTCCCAGCTGATGAATTTCCGAGGTCGAGTAAACAAATTTTCCTAATCTTTCTGTTCAAGCGCCATCTAC”, the binding signal (RPM ratio (pull-down/input)) was 0.172. With “GATGATTGTTCTCCCAGCTGATGAATTCTTTGCTTCGAGTAAACAAATTTTCCTAATCTTTCTGTTCAAGCGCCATCTAC” the figure was 0.407. The same measure for “GATGATTGTTCTCCCAGCTGATGAATTTGAAATATCGAGTAAACAAATTTTCCTAATCTTTCTGTTCAAGCGCCATCTAC”: 0.351; for “GATGATTGTTCTCCCAGCTGATGAATTACCTCTATCGAGTAAACAAATTTTCCTAATCTTTCTGTTCAAGCGCCATCTAC”: 0.384.

On to “GATGATTGTTCTCCCAGCTGATGAATTTCGAGTATCGAGTAAACAAATTTTCCTAATCTTTCTGTTCAAGCGCCATCTAC”, for which the binding signal (RPM ratio (pull-down/input)) worked out at 0.717. On to “GATGATTGTTCTCCCAGCTGATGAATTCGAGCTCTCGAGTAAACAAATTTTCCTAATCTTTCTGTTCAAGCGCCATCTAC”, for which the binding signal (RPM ratio (pull-down/input)) amounted to 0.302. In the case of “GATGATTGTTCTCCCAGCTGATGAATTGTGGTGGTCGAGTAAACAAATTTTCCTAATCTTTCTGTTCAAGCGCCATCTAC”, the binding signal (RPM ratio (pull-down/input)) turned out to be 1.11. With “GATGATTGTTCTCCCAGCTGATGAATTGTTAGGTTCGAGTAAACAAATTTTCCTAATCTTTCTGTTCAAGCGCCATCTAC” the figure was 1.1; with “GATGATTGTTCTCCCAGCTGATGAATTAAGGGACTCGAGTAAACAAATTTTCCTAATCTTTCTGTTCAAGCGCCATCTAC”, 0.385; with “GATGATTGTTCTCCCAGCTGATGAATTGGGCCTGTCGAGTAAACAAATTTTCCTAATCTTTCTGTTCAAGCGCCATCTAC”, 3.56. The same measure for “GATGATTGTTCTCCCAGCTGATGAATTCGGCAGCTCGAGTAAACAAATTTTCCTAATCTTTCTGTTCAAGCGCCATCTAC”: 1.36; for “GATGATTGTTCTCCCAGCTGATGAATTGGAATCATCGAGTAAACAAATTTTCCTAATCTTTCTGTTCAAGCGCCATCTAC”: 0.503.
